# Measured values published in PMC6919601, “Identification of Plasmodium dipeptidyl aminopeptidase allosteric inhibitors by high throughput screening” (PLoS ONE, 2019).
# Hit rate of the full screen: of about 110,000 compounds, about 230 (0.21%) showed an effect of 50% or more. This is one part of the list.
# Biological target: DPAP1 (Plasmodium falciparum, UniProt Q8IIJ9)
# Experiment: primary screen, percent inhibition; read by cleavage of a fluorogenic dipeptide substrate; higher = more effect of the substance
# Design: species or system P. falciparum D10 trophozoite lysates; single well
# 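Further: 30 min substrate incubation versus DMSO and 10 µM JCP410 controls.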
# Sequence of DPAP1 (Q8IIJ9 whole entry, looked up): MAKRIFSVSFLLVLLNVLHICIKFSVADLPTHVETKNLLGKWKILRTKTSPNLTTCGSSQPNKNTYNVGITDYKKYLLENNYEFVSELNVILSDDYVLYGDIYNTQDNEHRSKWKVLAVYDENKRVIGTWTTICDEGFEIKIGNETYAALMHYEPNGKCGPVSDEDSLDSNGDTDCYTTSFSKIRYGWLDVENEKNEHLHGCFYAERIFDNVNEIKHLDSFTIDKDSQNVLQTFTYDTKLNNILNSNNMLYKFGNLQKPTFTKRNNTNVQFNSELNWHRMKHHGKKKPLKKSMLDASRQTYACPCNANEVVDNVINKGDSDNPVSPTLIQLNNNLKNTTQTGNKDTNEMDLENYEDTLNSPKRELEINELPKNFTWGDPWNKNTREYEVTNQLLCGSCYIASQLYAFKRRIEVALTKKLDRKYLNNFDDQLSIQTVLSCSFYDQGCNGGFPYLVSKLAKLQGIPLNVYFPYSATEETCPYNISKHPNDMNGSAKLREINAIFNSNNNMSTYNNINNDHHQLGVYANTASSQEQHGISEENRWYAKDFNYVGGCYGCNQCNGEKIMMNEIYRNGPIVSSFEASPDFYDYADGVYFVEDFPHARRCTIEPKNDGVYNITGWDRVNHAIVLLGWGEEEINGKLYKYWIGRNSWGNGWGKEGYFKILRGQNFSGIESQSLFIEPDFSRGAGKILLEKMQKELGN
row,SMILES,% Inhibition @ 10 uM [%]
1,CCc1ccc(C(C)NC(=O)c2ccccc2)cc1 (stereo not shown),-3.27
2,CC1CCN(S(=O)(=O)c2ccc(NC(=O)[C@@H]3CCCC[C@@H]3C(=O)O)cc2)CC1,-2.68
3,Cc1nc2sccn2c(=O)c1S(=O)(=O)N1CCC2(CC1)OCCO2,-9.08
4,COc1ccc(-c2onc(C)c2C)cc1S(=O)(=O)N(C)Cc1cnn(-c2ccccc2)c1,1.73
5,COc1ccc(OC)c(CNC(=O)C2CCN(S(=O)(=O)N3CCC(C)CC3)CC2)c1,3.66
6,CCOC(=O)c1ccc(-c2ccc(C=O)o2)cc1,7.62
7,CCn1cc(/C=C(\NC(=O)c2ccccc2F)C(=O)NCc2ccccc2)c2ccccc21,-0.0235
8,Cc1ccc2[nH]c(/C(C#N)=C/c3ccc(F)cc3)nc2c1,-4.76
9,CC1CCCCN1C(=O)CCn1cnc2onc(-c3ccc(F)cc3)c2c1=O (stereo not shown),3.1
10,COc1ccccc1-c1cc(C)nc(N)c1C#N,-5.65
11,NC(=O)C1CCN(S(=O)(=O)c2ccccc2)CC1,1.4
12,COc1ccc(NC(=O)CN(c2cccc(Cl)c2)S(C)(=O)=O)c(OC)c1,3.17
13,Cc1nc2c(C(=O)NCCC(C)C)cnn2c(O)c1Cc1ccccc1F,0.0654
14,CC(C)(C)/N=C(\N=C(\NS(=O)(=O)c1ccccc1)c1ccccc1)c1ccc(Br)cc1,-0.183
15,Cc1ccc(-c2onc(C)c2C)cc1S(=O)(=O)N1CCN(Cc2ccccc2)CC1,-6.26
16,CN(c1cccc(NC(=O)COc2ccc(Cl)cc2Cl)c1)S(C)(=O)=O,6.86
17,COc1cc(CN(C)CCN(C)C)cc(OC)c1O,-1.5
18,COc1ccc(C2C3=C(O)CCCC3=NC(C)=C2C(=O)Nc2ccccc2F)c(OC)c1 (stereo not shown),-6.36
19,CCCc1cc(O)n2nc(N)nc2n1,-0.671
20,CC1=NN2C(=N)/C(=C\c3cc(C)n(-c4ccccc4)c3C)C(=O)N=C2S1,0.484
21,CC(=O)N1CCC(N2CCN(c3ccccn3)CC2)CC1,-0.274
22,COCCn1c(Sc2nc(C)cs2)nc2c1c(=O)[nH]c(=O)n2C,0.758
23,CC1CCCC(N2CCN(CCOCCO)CC2)C1 (stereo not shown),0.472
24,Cc1nc(=O)c(-c2ccccc2)c(C)n1CCc1c[nH]c2ccccc12,-5.48
25,c1ccc(Cc2nn3c(-c4ccccc4)nnc3s2)cc1,3.38

row,SMILES,% Inhibition @ 10 uM [%]
1,CCCCCOC(=O)Nc1nnc(CCC)s1,-4.08
2,O=C(O)c1cnc2cc(N3CCOCC3)c(F)cc2c1O,0.51
3,COc1ccc(/C=C\c2onc(C)c2S(=O)(=O)N2CCC(C(=O)Nc3nccs3)CC2)cc1,-11
4,CCN(CC)S(=O)(=O)c1ccc(NC(=O)COc2ccc(Br)cc2)cc1,-6.16
5,Cc1ccc2c(C)c(C(=O)N(Cc3sccc3C)C3CCS(=O)(=O)C3)oc2c1 (stereo not shown),3.57
6,O=C1OC(c2ccccc2F)=N/C1=C\c1coc2ccccc2c1=O,-11.7
7,Cc1ccc(OCc2nc(-c3ccc(C(=O)NCCN4CCCCC4C)cc3)oc2C)cc1 (stereo not shown),-0.591
8,Nc1[nH]ncc1-n1nnc2ccccc21,-3.96
9,O=C(O)COCc1nnc(S)n1-c1ccccc1,1.42
10,O=C(C1c2ccccc2C(=O)N2CCc3ccccc3C12)N1CCN(Cc2ccccc2)CC1 (stereo not shown),-5.09
11,Cc1oc(-c2cccc(F)c2)nc1CSCC(=O)O,-3.78
12,CCOc1ccccc1N(CC(=O)Nc1cc(C)ccc1C)S(C)(=O)=O,-8.2
13,Cc1ccc(NC(=O)c2cc3ccc4cccnc4c3[nH]2)nc1,-1.07
14,COc1ccc(-c2cc(-c3ccc(OC)cc3)c(C#N)c(SCC(=O)c3ccc(C)cc3)n2)cc1,-1.97
15,CCCc1nc(-c2ccc(-c3ccc(OC)cc3)nc2OCC)no1,-3.13
16,COc1ccc(Nc2cc(C)nc3c(C)cccc23)cc1OC,-5.13
17,COCCNC(=O)CCC(=O)n1ncc2ccc(Cl)cc21,-1.11
18,COc1cc(C2C(C#N)=C(N)Oc3[nH]nc(C(F)(F)F)c32)cc(OC)c1OC (stereo not shown),-4.24
19,COc1ccc(/C=C/C(=O)N2CCN(c3ccc([N+](=O)[O-])cc3)CC2)cc1,3.76
20,Cc1c(N2C(=O)CCC2=O)c(=O)n(-c2ccccc2)n1C,-3.04
21,CCC(C)Sc1nc2c(c(=O)n(C)c(=O)n2C)n1Cc1ccccc1 (stereo not shown),5.58
22,CCOc1ccc(NC2=C(Cl)C(=O)N(c3cccc(C)c3)C2=O)cc1,-0.864
23,COCCNC(=O)c1ccc(CS(=O)Cc2ccc(Cl)cc2)o1 (stereo not shown),5.88
24,O=C(Nc1c(C(=O)c2ccc(F)cc2)oc2ccccc12)c1cc(=O)c2ccccc2o1,-8.95
25,OCC1(CO)COC2(CCN(Cc3ccccc3)CC2)N1,-6.7

row,SMILES,% Inhibition @ 10 uM [%]
1,Cc1ccc(-n2nc3c(c2NC(=O)Cc2ccc(F)cc2)CSC3)cc1,14.7
2,COc1ccc(N2CCN(Cc3cc(OC)c(OC)c(OC)c3)CC2)cc1,-4.94
3,O=C(NCCN1CCN(C(=O)c2cc(F)c(F)cc2Cl)CC1)c1cc(F)c(F)cc1Cl,-0.597
4,C=CCNc1nc(Cl)nc(NC(C)C)n1,3.44
5,CCCn1c(=N)c(C(=O)NCc2ccccc2)cc2c(=O)n3cc(C)ccc3nc21,-1.47
6,COc1ccc(-n2nc3c(N4CCCC(C(=O)NC5CCCC5)C4)nnc(C)c3c2C)cc1 (stereo not shown),2.25
7,Cc1ccc(S(=O)(=O)N2CCN(S(=O)(=O)c3ccc(C)cc3)C2)cc1,1.52
8,CN1CCN(c2nc(-c3ccc(C(=O)NC(Cc4ccc5ccccc5c4)C(=O)NCC#N)cc3)cs2)CC1 (stereo not shown),-1.41
9,Cc1ccc2nc(C)c(CN(C)C)c(O)c2c1,2.36
10,COc1ccc(CN(C)C2CCN(C)CC2)cc1Br,2.23
11,CC1=C(C(=O)Nc2ccc(C)cc2)C(c2ccco2)NC(=O)N1 (stereo not shown),-1.76
12,Cc1ccc(-n2c(C)cc(C(=O)C(=O)Nc3nncs3)c2C)cc1C,-1.06
13,Cc1ccc(C(=O)CCC(=O)Nc2ccc(C)c(Cl)c2)cc1,1.67
14,O=C(NCc1ccccc1)N1CCOCC1,4.66
15,Cn1c(=O)n(C)c2cc(/C=C3/SC(=O)N(Cc4ccccc4)C3=O)ccc21,6.17
16,COc1cc2ccccc2cc1C(=O)Nc1cccc(NC(=O)c2ccccc2)c1,2.7
17,O=S(=O)(c1ccc(F)cc1)c1c(-c2ccc(F)cc2)cn2ccccc12,5.05
18,CC1CCc2nc(N3CCN(Cc4ccccc4)CC3)nc(C(F)(F)F)c2C1 (stereo not shown),-0.972
19,CCOC(=O)c1sc2ncnc(O)c2c1C,17.4
20,CCOC(=O)c1cnc2ccccc2c1NCCc1ccccc1,2.26
21,Cc1cc(/C=C2\SC(=O)NC2=O)c(C)n1-c1ccc2c(c1)OCO2,6.59
22,COc1ccc(-c2noc(CC(=O)Nc3nc4ccc(OC)cc4s3)n2)cc1,-2.85
23,CC(NC(=O)CN(c1ccc(F)cc1)S(=O)(=O)c1ccccc1)c1ccccc1 (stereo not shown),-3.49
24,Cc1ccc(NC(=O)Nc2ccc3c(c2)nc(C)n3C)cc1,-6.68
25,Cc1ccccc1OCC(=O)Nc1cccc(N2C(=O)c3ccc([N+](=O)[O-])cc3C2=O)c1,3.47

row,SMILES,% Inhibition @ 10 uM [%]
1,CCOc1ccc(N2CC(C(=O)Nc3cccc(C)c3C)CC2=O)cc1 (stereo not shown),-5.19
2,Cc1ccc(C)c(S(=O)(=O)Nc2ccc(C(=O)N3CCCCC3)cc2)c1,-5.86
3,O=c1cc2nc(-c3ccccc3)nc(SCc3ccc(Br)cc3)n2[nH]1,6.41
4,CCOc1ccc(N2C(=O)CC(N3CC(C)CC(C)C3)C2=O)cc1 (stereo not shown),4.83
5,C=CCn1c(C)c(/C=C(/C#N)C(=O)Nc2ccc(OC)cc2)c2ccccc21,-3.09
6,CCOC(=O)c1cnc2nc(SC)nn2c1O,-3.77
7,Cc1cccc(-c2nc(SCC(=O)NCc3ccco3)c(-c3ccccc3)[nH]2)c1,-3.39
8,OC(COc1ccccc1F)CN1CCN(Cc2ccc(Cl)cc2)CC1 (stereo not shown),-4.66
9,COC(=O)c1nc2n(n1)C(c1ccccc1)C1=C(O)CC(C)(C)CC1=N2 (stereo not shown),-4.1
10,O=C(c1ccccc1)N1CCN(C(=O)c2ccncc2)CC1,-2.94
11,COc1cc(C2NC(=O)c3[nH]nc(-c4ccc(C)cc4)c32)ccc1O (stereo not shown),-7.16
12,COc1cc(CN2CCN(C3CCCC(C)C3)CC2)cc(OC)c1OC (stereo not shown),-11
13,CSc1ccc(Cn2cccc2C2=NC(C(C)C)CO2)cc1 (stereo not shown),0.163
14,Cc1ccc(-c2noc(CCC(=O)NCCCN3CC(C)CC(C)C3)n2)cc1 (stereo not shown),7.15
15,Cc1nn(-c2ccccc2)c2sc(C(=O)Nc3ccc(F)cc3)cc12,5.39
16,COc1cc(C)c(CNc2ccc(C)c(C)c2)cc1C,-6.08
17,Cc1nc2nc(CC(=O)O)nn2c(O)c1Br,3.47
18,COc1cc2c(cc1OC)C(c1cccc(OC)c1OC)CC(=O)N2 (stereo not shown),5.39
19,COc1ccc(Cl)cc1/C=C1\SC(=O)N(C)C1=O,2.17
20,CC(C)(C)C(=O)CC(c1ccccc1)C1C(=O)c2ccccc2C1=O (stereo not shown),-0.771
21,CN(C)CCN(Cc1ccccc1)Cc1ccccc1[N+](=O)[O-],3.48
22,CC(C)CNC(=O)CN(c1ccc(Br)cc1)S(C)(=O)=O,1.92
23,N#Cc1ccccc1N/C=C/C(=O)c1ccc(Cl)cc1,5.83
24,COc1cc(C(=O)Nc2ccc(F)c(F)c2)ccc1OC(F)F,1.59
25,CCCNC(=O)Cn1nc(CC)n2c(cc3c(OC)cccc32)c1=O,-1.7
